Source: the supplement of paper PMC11417369
± gives the standard deviation of the averaged measurements. The list shows a part of the results.

These sequences were tested on PfAP2-I AP2 domain 3 (GST-tagged) (assay: gcPBM binding intensity (ln(normalized median fluorescence intensity)); higher = stronger DNA binding).
In short: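 An Agilent 4 × 180k array of primer-extended double-stranded 36-bp intergenic genomic probes, with negative controls, was incubated for 1 h with GST-tagged P. falciparum DNA-binding domains expressed in E. coli. Alexa488 anti-GST antibody detected bound protein, scanned at 488 nm. Binding intensity is the highest Masliner-normalised natural-log median intensity across replicate spots of either probe orientation.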

Row | Sequence | gcPBM binding intensity (ln)
1 | ATTTTTTTATAAAATTTTTATATAATTTATTATAAA [GTGCAC_negctrl_site96] | 7.39 ± 0.59
2 | AAAAAAAACAATCTCATACACACTAGGGATTAATTA [CACACA_site1776] | 7.33 ± 0.52
3 | TAAAGAGAAATATGTACATGCGAAAATGCCTTAAAT [TGCATGCA_site1050] | 8.18 ± 0.81
4 | AACATAAAACGTAATATATTACAAATATAAACAATC [CACACA_negctrl_site1675] | 7.92 ± 0.81
5 | TTACCATTTGAAAATTCACACACTTTATTTTGTTAT [CACACA_site3799] | 7.75 ± 0.77
6 | ATATATATATATATATGTACATATTTTATAACTGTA [XGTACX_site5395] | 9.27 ± 0.48
7 | ATTTATACATATAAACGTACATACATATATAATATT [XGTACX_site2969] | 7.88 ± 0.72
8 | TGGATAAAATAAAAATGTACTTAACATTTATATTTT [XGTACX_site712] | 7.39 ± 0.37
9 | AACAAAAGTAATTAAAAACAATACAAACATATGTTT [XGTACX_negctrl_site220] | 7.38 ± 0.64
10 | ATCATTCAAAAATGCTGTACTAGGGGAAAACGTGTT [XGTACX_site7168] | 7.83 ± 0.52
11 | ATATATAGGTTCCCTTTTCTTTTTTTTTTTTTTTTT [CACACA_negctrl_site1159] | 8.69 ± 0.57
12 | ATGTATGAAAAAATGTGTACATAATTTTTTTTTTTT [XGTACX_site5444] | 7.88 ± 0.52
13 | AAATAATATAAACATACACACACACCGATATATATA [CACACA_site8945] | 8.4 ± 0.54
14 | TTTCTAATTTATATCACACACATATAAATATAGTAA [CACACA_site6210] | 7.87 ± 0.52
15 | TTTGGAATATTAATTGTGCACTTAAAAAGTTAATTA | 11 ± 0.35
16 | TTAAATGTTGGTTGTAGTACTCCATATGTTGTTTTA [XGTACX_site5312] | 7.88 ± 0.33
17 | CTTATGTGCATACCTACACACTTACATATATATATA [CACACA_site8973] | 9.34 ± 0.49
18 | TGATACTGCAAAAAATATAAAAAAATAATAAAATAA [CACACA_negctrl_site791] | 7.92 ± 0.42
19 | TATATATATATAAGATGTACCCTTTGAAATAATAAT [XGTACX_site7215] | 9.09 ± 0.13

Row | Sequence | gcPBM binding intensity (ln)
20 | ATTAGTTTACACATATGTACATATATTACAACAAAA [XGTACX_site275] | 8.12 ± 0.49
21 | GGTGATATAATATATACATGCACATATATATTATTA [TGCATGCA_site970] | 8.46 ± 0.59
22 | TTACAAAAAAATAATTGTACATACAATTTCTGTTAT [XGTACX_site877] | 7.64 ± 0.38
23 | TTTATATGTATGAAGTGTACACATATATTGTATTTT [XGTACX_site5731] | 8.04 ± 0.49
24 | TATGGAAATATATATTGTACGTATGACCTTTAAAAA [XGTACX_site3935] | 7.85 ± 0.49
25 | ATTATATCATCTAAAACATGCACACATATGTACTCT [TGCATGCA_site949] | 8.29 ± 0.69
26 | GTTGAGAAAATATGTGCATGTCAGGTTAAATTTTTA [TGCATGCA_site744] | 8 ± 0.63
27 | TAAGATAAAAAAAATGCATGTTCTTATAATATTGTC [TGCATGCA_site939] | 8.27 ± 0.75
28 | ATATATATATATATATGTACATAATATATGTCCTAT [XGTACX_site5087] | 9.29 ± 0.32
29 | GTAAGCATAAATATATGTACATACATATACAGATAT [XGTACX_site3361] | 7.82 ± 0.33
30 | TTCTGTATAATATAAAAACAAAAATTAAATTAAAAC [CACACA_negctrl_site81] | 7.63 ± 0.54
31 | CATAAAATATAAAACACACACACATATATATATATA [CACACA_site223] | 9.26 ± 0.27
32 | TATTATATAAATATACGTACATATACTAACCTTTTA [XGTACX_site6317] | 7.83 ± 0.46
33 | AAATTTTTTATTCTAATTAATATTTACACAATATAT [TGCATGCA_negctrl_site376] | 7.61 ± 0.45
34 | TTCCATGTAGGACATGCATGCAGTTTTTAAAATATT [TGCATGCA_site481] | 8.21 ± 0.64
35 | TATGACATATCCTGTAGTACAACGTATATATAAGAT [XGTACX_site1327] | 7.93 ± 0.49
36 | ATATATAACGTGCACACACACATTTACGTATGAATA [CACACA_site6948] | 10.975 ± 0.007
37 | AATAAAAATAATGAATGTACATATATATATACAATA [XGTACX_site3342] | 7.61 ± 0.3
38 | TTTTATTAAAACCACGCATGCAGAGGAAACGGTGAG [TGCATGCA_site1029] | 8.45 ± 0.64

Row | Sequence | gcPBM binding intensity (ln)
39 | ATATATAATTTTTGCTGTACACAAAATATTAATTTA [XGTACX_site2057] | 8.21 ± 0.36
40 | TTTATGTATTTTTATGCACACATGCGTGGCTTATAT [CACACA_site4374] | 10.79 ± 0.064
41 | TACGGACATACTAACGGACACACGTAAGAAAAAAAA [CACACA_site602] | 7.88 ± 0.54
42 | TTTTTTTCAATATTTGCACACGATTATAATATTTAA [CACACA_site2237] | 9.415 ± 0.035
43 | AATATTCGTAATTGATGTACTTGTAATTCATACATT [XGTACX_site8314] | 7.67 ± 0.31
44 | TTTATAATAAAATTTTTACACACTTTAAAAAAAAAA [CACACA_site8070] | 7.79 ± 0.4
45 | AATAAATATCTGTACACACACAAATAAATACATATC [CACACA_site5108] | 8.04 ± 0.35
46 | TATAATAAAAATAATACACACATATATAGCAATCGT [CACACA_site3241] | 8.28 ± 0.54
47 | CAGAATAATTTTATCGGTACACACTGTATGCATAAT [XGTACX_site736] | 8.04 ± 0.64
48 | ACAGGAGTATAACCTCGTACAAAATATATTTACCAT [XGTACX_site5805] | 7.83 ± 0.83
49 | TCTTTAAAAAAAAAAAAAAAAAATTCCAAATAAATA [TGCATGCA_negctrl_site538] | 7.02 ± 0.49
50 | CCTAGAAAAGCATATACACACGCGCAAAATAAAATT [CACACA_site4902] | 8.16 ± 0.59
51 | TATATATATACATAATGTACAAGAATTTGTATTGAA [XGTACX_site627] | 8.52 ± 0.35
52 | TAAAAATAAAGAAAATGTACATAAATAAAAATAAAG [XGTACX_site2279] | 8.14 ± 0.69
53 | ATTTTTTTTTTTTTTTTAAGACAAACTCTTAATTTA [CACACA_negctrl_site1389] | 7.53 ± 0.46
54 | ATTCCAAAAAAATCAAGTACTAATTTATTATATTAC [XGTACX_site3920] | 7.58 ± 0.54
55 | TATTTTTTTAAGTGCAGTACACTTAATTTCCCCCAA [XGTACX_site7328] | 10.4 ± 0.33
56 | AAAAAAAAAAAAAAAAAAATATATTATATATATATA [XGTACX_negctrl_site467] | 9.51 ± 0.16
